{"source": "PubChem BioAssay AID504332", "about": "(National Center for Advancing Translational Sciences (NCATS), 2011)", "note": "Several values for one entry are separate records, joined by “and”; a condition that tells them apart may be missing. Equal values may be shown once. Among all 350,000 compounds or so, about 31,000 (8.9%) were called active. The shares of active, inactive and inconclusive entries below differ from those in the screen. The call rests on the fitted dose curve; in most records, active means well fitted inhibition curve with a large enough effect; inconclusive means small, poorly fitted or top-dose-only effect; inactive means no such curve, though single readings can be large or run the other way. Potencies of inconclusive entries are doubtful fits and often do not repeat. On the % scale 0 is the no-effect control and ±100 the full control effect; potency means the concentration at half of the fitted maximal effect; tags describe the fitted curve by direction and shape.", "data": [{"target": "Histone-lysine N-methyltransferase EHMT2 (Homo sapiens) (UniProt Q96KQ7)", "sequence (Q96KQ7 whole entry, looked up)": "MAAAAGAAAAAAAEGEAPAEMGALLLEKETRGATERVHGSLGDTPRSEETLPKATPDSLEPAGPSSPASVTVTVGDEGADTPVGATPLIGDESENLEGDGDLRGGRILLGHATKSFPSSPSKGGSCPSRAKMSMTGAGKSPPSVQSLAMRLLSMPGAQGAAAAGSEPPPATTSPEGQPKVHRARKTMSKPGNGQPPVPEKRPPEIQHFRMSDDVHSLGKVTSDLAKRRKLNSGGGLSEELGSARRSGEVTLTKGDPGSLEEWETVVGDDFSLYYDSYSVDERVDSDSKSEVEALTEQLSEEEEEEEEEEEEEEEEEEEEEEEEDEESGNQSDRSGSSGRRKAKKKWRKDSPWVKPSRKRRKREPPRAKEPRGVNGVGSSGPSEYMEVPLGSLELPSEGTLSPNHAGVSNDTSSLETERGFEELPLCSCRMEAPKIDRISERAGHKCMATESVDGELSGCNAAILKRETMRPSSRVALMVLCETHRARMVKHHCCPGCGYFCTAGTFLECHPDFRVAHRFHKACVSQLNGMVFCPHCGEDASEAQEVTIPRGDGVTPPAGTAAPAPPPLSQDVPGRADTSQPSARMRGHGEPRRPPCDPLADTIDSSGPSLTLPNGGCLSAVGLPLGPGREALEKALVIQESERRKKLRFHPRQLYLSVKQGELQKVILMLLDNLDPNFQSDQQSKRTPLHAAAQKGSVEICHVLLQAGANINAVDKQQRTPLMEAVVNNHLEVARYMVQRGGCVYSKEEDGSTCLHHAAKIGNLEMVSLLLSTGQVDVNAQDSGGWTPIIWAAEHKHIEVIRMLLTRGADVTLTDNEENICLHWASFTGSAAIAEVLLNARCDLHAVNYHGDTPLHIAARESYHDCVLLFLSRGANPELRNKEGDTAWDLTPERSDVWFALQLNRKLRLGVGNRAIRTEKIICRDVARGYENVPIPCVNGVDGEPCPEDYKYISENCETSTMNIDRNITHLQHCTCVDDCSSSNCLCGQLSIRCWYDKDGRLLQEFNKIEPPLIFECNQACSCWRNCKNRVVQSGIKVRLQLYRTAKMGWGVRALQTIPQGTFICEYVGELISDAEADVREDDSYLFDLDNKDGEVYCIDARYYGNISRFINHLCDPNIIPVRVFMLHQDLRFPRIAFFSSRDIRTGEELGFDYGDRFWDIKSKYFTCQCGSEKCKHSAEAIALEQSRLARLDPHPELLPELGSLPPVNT", "assay": "qHTS Assay for Inhibitors of Histone Lysine Methyltransferase G9a; further: nearly all actives have a fitted effect of over 75% in size", "settings": "G9a H3K9 monomethylation, AlphaScreen, 2 h; activity, negative = inhibition: at 59 µM (top of the series) unless noted", "procedure,_shortened": "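Compounds were preincubated with 20 nM G9a for 15 min, after which biotinylated H3K9 peptide (500 nM) and SAM (20 uM) started a 2 h room-temperature reaction. Monomethylated product was quantified by antibody-based AlphaScreen chemiluminescence.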", "values": [{"smiles": "CCCCCCCCCS(=O)(=O)Nc1cc(C)ccn1", "Potency": "inconclusive: 8.91 µM [inhibitor, partial curve, poor fit]"}, {"smiles": "CC(OC(=O)c1ccc2c(=O)n3c(nc2c1)CCC3)C(N)=O", "note": "(stereo unspecified)", "Potency": "inactive"}, {"smiles": "COc1cc(CC(=O)Nc2ccc(S(=O)(=O)N(C)C)cc2)cc(OC)c1OC", "Potency": "active: 50.1 µM"}, {"smiles": "CCN1C(=O)/C(=c2\\o/c(=C3\\C=Cc4ccccc4N3CC)c(=O)n2CC)SC1=S", "Potency": "inconclusive: 39.8 µM [inhibitor, single point]"}, {"smiles": "CCOC(=O)c1c(S(=O)(=O)N2CCC(C(=O)Nc3ccc(OCC)cc3)CC2)c(C)n(C)c1C", "Potency": "inactive"}, {"smiles": "Cc1c(Cl)c([N+](=O)[O-])nn1CCCC(=O)NC1CCCCC1", "Potency": "inactive"}, {"smiles": "Brc1cc2c(cc1/C=N/Nc1nc(N3CCCC3)nc(N3CCOCC3)n1)OCO2", "Potency": "active: 15.8 µM"}, {"smiles": "Cc1cc(Cl)ccc1OCCCC(=O)OCC(=O)Nc1cccc(S(N)(=O)=O)c1", "Potency": "inconclusive: 3.16 µM [inhibitor, single point]"}, {"smiles": "COc1ccccc1NC(=O)CS(=O)(=O)c1cn(CC(=O)N2CCCC2)c2ccccc12", "Potency": "inconclusive: 31.6 µM [inhibitor, partial curve, poor fit]"}, {"smiles": "Cc1ccc2[nH]c(=O)c(CN(Cc3ccco3)C(=O)N3CCOCC3)cc2c1", "Potency": "inactive"}, {"smiles": "CCOC(=O)N1CCN(C(=O)C(C)(C)Oc2ccc(Cl)cc2)CC1", "Potency": "inconclusive: 89.1 µM [inhibitor, partial curve, poor fit]"}, {"smiles": "CCN(CC)c1ccc(NC(=O)C2CCC(CNc3c(N4CCCC4)c(=O)c3=O)CC2)c(C)c1", "note": "(stereo unspecified)", "Potency": "active: 39.8 µM"}, {"smiles": "COCCCn1c(SCC(=O)N2CCCCC2C)nnc1-c1ccco1", "note": "(stereo unspecified)", "activity, negative = inhibition": "inactive: -3.43% [at 2.33 µM]"}, {"smiles": "COCCNc1ccc(S(=O)(=O)N2CCCC2)cn1", "Potency": "inconclusive: 89.1 µM [inhibitor, single point]"}, {"smiles": "O=C(COC(=O)Cc1ccsc1)Nc1ccc(Cl)c(S(=O)(=O)N2CCOCC2)c1", "Potency": "inactive"}, {"smiles": "O=C(NCc1ccccc1Cl)c1ccc(Nc2nc3ccccc3n3nnnc23)cc1", "Potency": "inactive"}, {"smiles": "Cc1ccc(C)n1-n1c(C)nc2scc(-c3cccs3)c2c1=O", "Potency": "inconclusive: 28.2 µM [inhibitor, full curve]"}, {"smiles": "CN(C)c1ccc(/C=C(\\NC(=O)c2ccccc2)C(=O)NCc2ccncc2)cc1", "Potency": "active: 28.2 µM"}, {"smiles": "Cc1ccc(CS/C(Nc2ccccc2C)=C(\\C#N)C(N)=O)c(C)c1", "Potency": "inconclusive: 89.1 µM [inhibitor, single point]"}, {"smiles": "COc1ccc(OC)c(NC(=O)N2c3ccccc3Sc3ccccc32)c1", "Potency": "inconclusive: 2.82 µM [inhibitor, partial curve, poor fit]"}, {"smiles": "COc1ccc(N2CCN(C(=O)c3ccc(C)c(NC(=O)C4=C(C)OCCS4)c3)CC2)cc1", "Potency": "active: 39.8 µM"}, {"smiles": "Cc1oc(C)c2c(=O)cc(-c3ccc4c(c3)OCO4)cc(OC(=O)c3ccc(Cl)cc3)c12", "Potency": "inconclusive: 39.8 µM [inhibitor, partial curve, poor fit]"}, {"smiles": "CCN(CC)S(=O)(=O)c1cccc(N=Nc2sc(N)nc2C)c1", "Potency": "active: 39.8 µM"}, {"smiles": "COc1ccc(C2C(C(=O)c3ccccc3)=C(C)Nc3nc4ccccc4n32)cc1OC", "note": "(stereo unspecified)", "Potency": "inconclusive: 63.1 µM [inhibitor, partial curve, poor fit]"}, {"smiles": "Cc1nn(-c2ccccc2)c(C)c1NC(=O)COc1ccc([N+](=O)[O-])cc1", "Potency": "inconclusive: 50.1 µM [inhibitor, partial curve, poor fit]"}, {"smiles": "O=C(C[n+]1ccccc1)c1ccc(NC(=O)c2ccccc2)cc1", "Potency": "active: 15.8 µM"}, {"smiles": "CCN1CCN(C(=O)CCNC(=O)Cn2cnc3ccccc3c2=O)CC1", "Potency": "inconclusive: 50.1 µM [inhibitor, partial curve, poor fit]"}, {"smiles": "O=C(Cn1ccc2ccccc2c1=O)NCCC(=O)N1CCN(c2ccccc2)CC1", "Potency": "inconclusive: 89.1 µM [inhibitor, single point]"}, {"smiles": "CS(=O)(=O)c1ccc2nc(NC(=O)c3ccc(Cn4cc(Br)cn4)o3)sc2c1", "Potency": "inconclusive: 89.1 µM [inhibitor, single point]"}, {"smiles": "O=C(Cc1ccccc1)Nc1ccc(NC(=O)C2CCCCC2)nc1", "Potency": "inconclusive: 22.4 µM [inhibitor, partial curve, poor fit]"}, {"smiles": "Cc1ccccc1OCCCc1c(C)n[nH]c1C", "Potency": "inconclusive: 35.5 µM [inhibitor, single point]"}, {"smiles": "CSc1nnc(N2C(=O)C(O)=C(C(=O)c3ccc(C)o3)C2c2ccc(C)cc2)s1", "note": "(stereo unspecified)", "activity, negative = inhibition": "inactive: -3.45% [at 0.501 µM]"}, {"smiles": "Cc1c(C(=O)N2CCN(c3ccccn3)CC2)oc2ccccc12", "Potency": "inconclusive: 39.8 µM [inhibitor, single point]"}, {"smiles": "Cc1ccc(-n2c(Cl)c(Cl)nc(Cl)c2=O)cc1", "Potency": "inconclusive: 31.6 µM [inhibitor, single point]"}, {"smiles": "O=C(CSc1nc2ccccc2n1-c1ccccc1)Nc1ncc(Cl)cc1Cl", "Potency": "inactive"}, {"smiles": "COc1ccccc1NC(=O)Nc1nc(CC(=O)N2CCN(c3ccc(F)cc3)CC2)cs1", "Potency": "inconclusive: 50.1 µM [inhibitor, partial curve]"}, {"smiles": "O=C(NC(=S)NCCSc1ccccc1)c1cccnc1", "Potency": "inconclusive: 22.4 µM [inhibitor, partial curve, poor fit]"}, {"smiles": "O=C1NC[C@@H](Cc2cccc3ccccc23)N(CC2(c3ccccc3)CC2)C1=O", "activity, negative = inhibition": "inconclusive: -76.1% [inhibitor]"}, {"smiles": "CN1C(=O)CS(=O)c2ccc(C(=O)NC3CC3)cc21", "note": "(stereo unspecified)", "Potency": "inconclusive: 100 µM [inhibitor, single point]"}, {"smiles": "CC(=O)NC(c1cc(Cl)c2cccnc2c1O)C(C)C", "note": "(stereo unspecified)", "activity, negative = inhibition": "inactive: -1.63% [at 0.501 µM] and inactive: 9.11% [at 12.7 µM]"}, {"smiles": "COc1ccc(C(=O)N2CCC3(CCCN(C(=O)NC(C)C)C3)CC2)cc1", "activity, negative = inhibition": "inactive: -3.02% [at 12.7 µM]"}, {"smiles": "COC(=O)c1c(NC(=O)CN2CCN(C(=O)c3ccco3)CC2)c2c(C)cccc2n1C", "Potency": "inconclusive: 1.41 µM [inhibitor, partial curve, poor fit]"}, {"smiles": "COC(=O)c1ccc(NC(=O)CSc2n[nH]c(CC(C)C)n2)cc1", "Potency": "inconclusive: 28.2 µM [inhibitor, single point]"}, {"smiles": "O=C(NCCc1nc2ccccc2[nH]1)/C(=C/c1ccco1)NC(=O)c1ccc(Br)cc1", "Potency": "active: 70.8 µM"}, {"smiles": "O=C(CSc1ncnc2c1oc1ccccc12)NCc1ccco1", "Potency": "active: 14.1 µM"}, {"smiles": "CCN(CC)C(=O)C1=C(C)Nc2nc3ccccc3n2C1c1cccc(Cl)c1", "note": "(stereo unspecified)", "Potency": "inactive"}, {"smiles": "COC(=O)c1ccc(COc2ccc(/C=N/NC(N)=S)cc2)o1", "Potency": "active: 50.1 µM"}, {"smiles": "CN(C)c1ncc2nc(CCc3ccccc3)c(=O)n(Cc3ccc(F)cc3)c2n1", "activity, negative = inhibition": "inactive: -2.91% [at 12.7 µM]"}, {"smiles": "COc1ccc(-c2nc3n(n2)C(c2ccccc2)C2=C(CCCC2=O)N3)cc1OC", "note": "(stereo unspecified)", "Potency": "inconclusive: 79.4 µM [inhibitor, partial curve, poor fit]"}, {"smiles": "CCOC(=O)c1nnc(-c2ccccc2)nc1Sc1c(Cl)cccc1Cl", "Potency": "active: 39.8 µM"}, {"smiles": "CC1CCC(NC(=O)C2CCN(S(=O)(=O)c3ccc4nc5c(c(C(=O)O)c4c3)CC(C)CC5)CC2)CC1", "note": "(stereo unspecified)", "Potency": "active: 50.1 µM"}, {"smiles": "COc1ccccc1N1C(=O)C(Cl)=C(Nc2ccccc2O)C1=O", "Potency": "active: 4.47 µM"}, {"smiles": "COc1cc(OC)cc(C(=O)NC2CCSC2=O)c1", "note": "(stereo unspecified)", "Potency": "inactive"}, {"smiles": "COc1ccc(CNC(=O)c2cc3cccc(OC)c3oc2=O)cc1", "Potency": "inactive"}, {"smiles": "CCCn1c2ccccc2c2cnn(CC(=O)NCCCN3CCCC(C)C3)c(=O)c21", "note": "(stereo unspecified)", "Potency": "inactive"}, {"smiles": "O=C(Nc1ccc(N2CCCC2)c(Cl)c1)c1ccccc1[N+](=O)[O-]", "Potency": "inconclusive: 39.8 µM [inhibitor, single point]"}, {"smiles": "CCOC(=O)c1c(CN2CCN(C)CC2)n(-c2ccccc2)c2cc(Br)c(O)cc12", "activity, negative = inhibition": "inactive: 1.29% [at 12.7 µM]"}, {"smiles": "COc1c(Cl)cnn(-c2ccc(C)cc2)c1=O", "activity, negative = inhibition": "inactive: -35.1% [at 12.7 µM]"}, {"smiles": "Cc1ccc(C(=O)O)cc1S(=O)(=O)N1CCSCC1", "Potency": "inconclusive: 50.1 µM [inhibitor, partial curve, poor fit]"}, {"smiles": "CC(C)c1ccc(NC(=S)NN(c2ccccc2)c2ccccc2)cc1", "Potency": "inconclusive: 8.91 µM [inhibitor, partial curve, poor fit]"}, {"smiles": "CC(C)CCN1C(=O)c2ccc(C(=O)Nc3ccc(O)cc3C(=O)O)cc2C1=O", "Potency": "inconclusive: 89.1 µM [inhibitor, single point]"}, {"smiles": "COc1ccc(C2SCCN2C(=S)Nc2ccc(F)cc2)cc1", "note": "(stereo unspecified)", "Potency": "active: 39.8 µM"}, {"smiles": "N#Cc1ccncc1Sc1ccc(Cl)cc1", "Potency": "inactive"}, {"smiles": "COc1ccccc1COc1ccc2c(C)c(CC(=O)O)c(=O)oc2c1C", "Potency": "inactive"}, {"smiles": "CCOc1ccc(NC(=S)Nc2cc(OC)c(Cl)cc2OC)cc1", "Potency": "inconclusive: 25.1 µM [inhibitor, single point]"}, {"smiles": "CC(C)NC(=S)N/N=C/c1cccnc1", "activity, negative = inhibition": "inconclusive: -69.1% [inhibitor]"}, {"smiles": "O=C(CSc1nnc(NC(=O)c2ccccc2F)s1)Nc1ccccc1F", "activity, negative = inhibition": "inactive: 36.3% [at 12.7 µM]"}, {"smiles": "COc1cc(OC)c2c(-c3cccc(-c4cccc(N)c4)c3)cc(=O)oc2c1", "Potency": "inconclusive: 31.6 µM [inhibitor, single point]"}, {"smiles": "COc1ccc2sc(N(CCCN(C)C)C(=O)c3ccc(C(=O)c4ccccc4)cc3)nc2c1", "Potency": "active: 44.7 µM"}, {"smiles": "CSCc1ccc(C(=O)N2CCCC(Nc3ccc4c(c3)OCCO4)C2)o1", "note": "(stereo unspecified)", "Potency": "active: 79.4 µM"}, {"smiles": "CC(C)(C)c1ccc(C(=O)N2CCN(CCNC(=O)C(=O)NCc3ccc(Cl)cc3)CC2)cc1", "Potency": "inconclusive: 17.8 µM [inhibitor, partial curve, poor fit]"}]}]}
